Sequences with one replicate were seen in a single cluster, so their values are uncertain.
System: ATP
Test: switch fluorescence ratio, 500 uM ATP over buffer (Cy3 cluster intensity, sum of 5 cycles each) (fold (ratio)); higher = stronger signal-on switching upon ATP binding; sequences stand for … in TCGTCGGCAGCGTCAGATGTGTATAAGAGACAGTTTTTTTTTTTTTTTTTTTTTTTTT…TC
Conditions: aptamer strand: ATP DNA aptamer (quencher-CACCTGGGGGAGTATTGCGGAGGAAGG + anchor), 100 nM annealed; ATP concentration: 500 uM; one replicate
How it was run: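 For every switch-domain sequence, the fluorescence ratio is the mean of per-cluster values, each being summed target-cycle Cy3 intensity over summed buffer-cycle Cy3 intensity. Clusters outside 100-1000 RFU were excluded. On a modified Illumina MiSeq flow-cell, the Cy3-labelled switching-strand clusters were annealed to 100 nM quencher-labelled ATP aptamer, imaged in selection buffer and then after 15 min with 500 uM ATP at 22 °C. Five such cycles were run, with NaOH stripping and re-annealing between them.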
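Also: ATP exposure 15 min at 22 °C before imaging.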

GTGGTGGAGC was tested, and the switch fluorescence ratio was 0.964.

CTATATGAGC was tested, and the switch fluorescence ratio was 0.991.

With CAGCGTATT the switch fluorescence ratio was 1.

In the case of CGTTCTAGGC, the switch fluorescence ratio is reported as 0.982.

With ACTGTTTCCC the switch fluorescence ratio was 0.989.

For ATGGACCTAG, the switch fluorescence ratio was 0.972.

TGATCTAAAA showed a switch fluorescence ratio of 0.995.

CAGGGTGGAA gave a switch fluorescence ratio of 0.993.

Sequence AAACCTGCGT has a switch fluorescence ratio of 1.03.

CCGCATGCAT was tested, and the switch fluorescence ratio was 5.14.

Work on CAACGCGGAT yielded a switch fluorescence ratio of 1.25.

Work on GCACCTTTTA yielded a switch fluorescence ratio of 0.989.

Sequence CTTGTGTCTT has a switch fluorescence ratio of 1.01.

In the case of CACGACTCCA, the switch fluorescence ratio is reported as 1.18.

For AGGGCGGGAG, the switch fluorescence ratio was 0.989.

Sequence CAACTAAGGA has a switch fluorescence ratio of 1.02.

CATAGCCCTC gave a switch fluorescence ratio of 1.02.

GACCGGCACG was tested, and the switch fluorescence ratio was 1.07.

Sequence AATATCAACA has a switch fluorescence ratio of 1.04.

Sequence TTGGATTT has a switch fluorescence ratio of 1.01.

Sequence CCAGCTTGTC has a switch fluorescence ratio of 1.11.

TTGTAGGTGG gave a switch fluorescence ratio of 1.

GCCTTTCCTG gave a switch fluorescence ratio of 1.01.

In the case of GACCCGCTGA, the switch fluorescence ratio is reported as 1.59.

With TTATCACACG the switch fluorescence ratio was 1.06.

Work on TCTCCGGCCA yielded a switch fluorescence ratio of 2.9.

Sequence ATCCTGTCGG has a switch fluorescence ratio of 0.967.

Sequence TCAGGCAGAA has a switch fluorescence ratio of 1.

Sequence TTTGCGTCC has a switch fluorescence ratio of 1.01.

AATCAACTAT was tested, and the switch fluorescence ratio was 0.983.

Sequence CGTATAGCTT has a switch fluorescence ratio of 1.06.

TTTCCGGTC was tested, and the switch fluorescence ratio was 1.11.

In the case of AGATGGTTAC, the switch fluorescence ratio is reported as 1.04.

For TCGAAGAGTA, the switch fluorescence ratio was 0.961.

Sequence CGAGCCAGGT has a switch fluorescence ratio of 1.43.

ATTTGCGACG gave a switch fluorescence ratio of 1.01.

In the case of CAGCTAACTC, the switch fluorescence ratio is reported as 1.62.

In the case of GTCTGAGGCC, the switch fluorescence ratio is reported as 0.991.

ACTGATTAG was tested, and the switch fluorescence ratio was 0.999.

CAATGACTCG showed a switch fluorescence ratio of 1.04.

AACTTAGAAT gave a switch fluorescence ratio of 0.947.

With TTCGATGATG the switch fluorescence ratio was 0.962.

CACAACCAAA gave a switch fluorescence ratio of 1.02.

With AAGATGTGTT the switch fluorescence ratio was 1.02.

Work on TCGAGTTC yielded a switch fluorescence ratio of 1.04.

CCCGAAGTGA gave a switch fluorescence ratio of 1.52.

With TAGATATATG the switch fluorescence ratio was 0.985.

TTATCGACCT gave a switch fluorescence ratio of 1.37.

CAATCAACGT gave a switch fluorescence ratio of 0.961.

For GGAGGTGGAT, the switch fluorescence ratio was 1.03.

With TATTTCCCAG the switch fluorescence ratio was 1.04.

With AGAGCACGCG the switch fluorescence ratio was 1.02.

GCGAGATGTA was tested, and the switch fluorescence ratio was 0.995.

AGTAGGTGTC gave a switch fluorescence ratio of 1.07.

With AGGTTATTTA the switch fluorescence ratio was 0.973.

With CATTAGTAAT the switch fluorescence ratio was 1.05.

In the case of ATCTGTCTT, the switch fluorescence ratio is reported as 1.

TCACCTGGTC showed a switch fluorescence ratio of 1.09.

In the case of GGTTGCCTAA, the switch fluorescence ratio is reported as 1.01.

GATCATATCG was tested, and the switch fluorescence ratio was 0.974.

With CGTATGAATG the switch fluorescence ratio was 1.06.

For GCTAGGGTAC, the switch fluorescence ratio was 1.05.

TAGAGGTTGT gave a switch fluorescence ratio of 0.978.

CAATTCCGTC showed a switch fluorescence ratio of 0.978.

With AGTTGGAAGC the switch fluorescence ratio was 1.01.

With GTATACGCTC the switch fluorescence ratio was 1.01.

With TCCATGAGGG the switch fluorescence ratio was 1.02.

TCAGCGAATC showed a switch fluorescence ratio of 3.33.

For GACATCTCTG, the switch fluorescence ratio was 1.09.

With TCACTCTGAT the switch fluorescence ratio was 1.

In the case of TAGCCCCGAA, the switch fluorescence ratio is reported as 1.07.
